PubChem BioAssay AID504339 (National Center for Advancing Translational Sciences (NCATS), 2011)
The campaign covered roughly 390,000 compounds. About 17,000 (4.4%) were called active. Inconclusive results, whose numbers are uncertain, are shown with a selection of clear calls. Calls follow the shape of the dose curve; as a rule, active = well fitted inhibition curve with a large enough effect; inconclusive = small, poorly fitted or top-dose-only effect; inactive = no such curve, though single readings can be large or run the other way. Where the call is inconclusive, the potency comes from a doubtful curve fit. Where a structure was tested more than once in an assay, its records may differ in their call.

Molecular target: Lysine-specific demethylase 4A (Homo sapiens) (UniProt O75164)
Experiment: qHTS Assay for Inhibitors of JMJD2A-Tudor Domain; also: nearly all actives have a fitted effect of over 50% in size
Conditions: AlphaScreen JMJD2A-Tudor / H3K4me3 peptide binding; activity change, negative = inhibition: at 114 µM (top of the series)
% is scaled to controls: 0 for no effect and ±100 for the full control effect; potency is read from the fitted curve at half-maximal effect; tags tell the direction and shape of the fitted curve.

UniProt O75164, sequence (O75164 whole entry, looked up, the tested form may be a part): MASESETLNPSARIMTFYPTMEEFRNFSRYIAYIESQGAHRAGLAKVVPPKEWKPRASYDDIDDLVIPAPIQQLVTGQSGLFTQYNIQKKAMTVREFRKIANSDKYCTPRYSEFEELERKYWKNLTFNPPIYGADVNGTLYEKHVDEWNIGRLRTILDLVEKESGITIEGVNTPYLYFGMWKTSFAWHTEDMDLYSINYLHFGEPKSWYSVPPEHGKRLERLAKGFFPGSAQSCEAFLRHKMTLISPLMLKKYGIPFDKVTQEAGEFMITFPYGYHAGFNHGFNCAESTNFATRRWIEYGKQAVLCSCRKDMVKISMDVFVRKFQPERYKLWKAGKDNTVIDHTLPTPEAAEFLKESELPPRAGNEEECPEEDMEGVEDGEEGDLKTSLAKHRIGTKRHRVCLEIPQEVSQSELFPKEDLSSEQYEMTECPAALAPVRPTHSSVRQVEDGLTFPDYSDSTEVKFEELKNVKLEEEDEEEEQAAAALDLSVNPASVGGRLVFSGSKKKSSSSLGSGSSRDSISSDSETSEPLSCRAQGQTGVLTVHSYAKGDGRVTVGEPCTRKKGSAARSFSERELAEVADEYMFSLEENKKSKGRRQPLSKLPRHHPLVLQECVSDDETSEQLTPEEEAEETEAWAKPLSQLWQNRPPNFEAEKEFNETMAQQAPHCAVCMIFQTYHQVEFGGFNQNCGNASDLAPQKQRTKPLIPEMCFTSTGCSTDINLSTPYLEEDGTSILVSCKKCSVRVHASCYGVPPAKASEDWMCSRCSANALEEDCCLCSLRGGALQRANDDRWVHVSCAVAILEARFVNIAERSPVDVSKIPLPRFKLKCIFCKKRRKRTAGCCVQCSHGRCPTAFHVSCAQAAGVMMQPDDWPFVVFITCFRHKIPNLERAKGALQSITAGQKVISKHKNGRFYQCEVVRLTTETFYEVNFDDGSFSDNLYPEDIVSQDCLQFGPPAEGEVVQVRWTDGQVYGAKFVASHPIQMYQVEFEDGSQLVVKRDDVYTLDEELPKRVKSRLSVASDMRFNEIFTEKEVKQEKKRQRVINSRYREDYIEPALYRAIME

Structure (SMILES) | Potency | activity change, negative = inhibition
Cc1ccccc1-n1c(O)c(/C=C2/C(c3ccccc3)=Nc3ccccc32)c(=O)[nH]c1=O | inconclusive: 39.8 µM [inhibitor, single point] | 
O=c1c2ccccc2nc(/C=C\c2ccccc2[N+](=O)[O-])n1-c1ccccc1O | inconclusive: 44.7 µM [inhibitor, full curve] | 
Clc1ccc2c(c1)C(c1ccccc1Cl)=NCc1nnc(N3CCN(CCSc4ccccc4)CC3)n1-2 | inconclusive: 25.1 µM [inhibitor, full curve] | 
COc1ccc(CC(=O)C2C(=O)N(C)c3ccccc32)cc1OC (stereo not drawn) | inconclusive: 20 µM [inhibitor, full curve] | 
FC(F)(F)c1ccc(CNCCc2ccc3c(c2)OCO3)cc1 | active: 56.2 µM | 
Nc1nc2c(s1)CCCCCCCCCC2 | inconclusive: 89.1 µM [inhibitor, partial curve] | 
OCCN1CCN(CCCN2c3ccccc3Sc3ccc(C(F)(F)F)cc32)CC1 | active: 79.4 µM | 
COc1ccc(OCC(=O)N2CCN(CC3CC4C=CC3C4)CC2)cc1 (stereo not drawn) | active: 5.62 µM | 
COc1ccc(OC)c(N2C(=O)NC(=O)/C(=C\c3ccc([N+](=O)[O-])s3)C2=O)c1 | active: 28.2 µM | 
COC(=O)C1=C(C)NC(C)=C(C(=O)OC)C1c1ccccc1[N+](=O)[O-] | inconclusive: 56.2 µM [inhibitor, partial curve] | 
O=C1NC(=O)N(CCc2ccc(F)cc2)C(=O)/C1=C/c1cccs1 | active: 56.2 µM | 
COCCCNC(=O)c1c(NC(=O)c2ccco2)n(Cc2ccccc2)c2nc3ccccc3nc12 | inconclusive: 89.1 µM [inhibitor, single point] | 
COc1cccc(-c2sc3ccccc3c2-c2ccc(OCCN3CCOCC3)cc2)c1 | inconclusive: 20 µM [inhibitor, full curve] | 
CCOC(=O)C1(CCc2ccccc2)CCN(Cc2ccc(NC(C)=O)cc2)CC1 |  | inactive: -15.3%
CCN1CCN(P2(=O)C=C(c3ccccc3)OC(c3ccccc3)=C2)CC1 | inconclusive: 89.1 µM [inhibitor, single point] | 
CN(CCOc1ccc(C=C2C(=O)NC(=O)NC2=O)cc1)c1ccccn1 | inconclusive: 79.4 µM [inhibitor, partial curve] | 
Cn1cc(C(=O)Cc2ccccc2)c2ccccc21 | inconclusive: 28.2 µM [inhibitor, single point] | 
C(=NC1CCCCC1)c1c[nH]c2ccccc12 | inconclusive: 39.8 µM [inhibitor, single point] | 
C[N+]1(CCOS(=O)C23CC4CC(CC(C4)C2)C3)CCOCC1 (stereo not drawn) | inconclusive: 20 µM [inhibitor, full curve] | 
N#Cc1ccc(NC(=O)CN2CCN(C(=O)c3cccs3)CC2)cc1Cl |  | inactive: -8.97%
CCC(COC(=O)c1cc(OC)c(OC)c(OC)c1)(c1ccccc1)N(C)C (stereo not drawn) | active: 50.1 µM | 
CCN1CCN(c2ccc(N)cc2C)CC1 | inconclusive: 63.1 µM [inhibitor, partial curve, poor fit] | 
CC(C)(C)c1ccc(S(=O)(=O)Nc2ccc(O)c(Sc3nc4ccccc4s3)c2)cc1 | inconclusive: 50.1 µM [inhibitor, partial curve] | 

Structure (SMILES) | Potency | activity change, negative = inhibition
NCCc1c[nH]c2ccc(O)cc12 |  | inactive: -26.6%
CC(C)n1c(N2CCN(S(=O)(=O)c3cccc([N+](=O)[O-])c3)CC2)nc2ccccc21 | inconclusive: 44.7 µM [inhibitor, partial curve] | 
CCOP(=O)(CN(CC)CCNP(=O)(OCC)OCC)OCC | inconclusive: 31.6 µM [inhibitor, partial curve] | 
O=C(NC(=S)N1C[C@H]2C[C@H](C1)c1cccc(=O)n1C2)c1ccc(Cl)cc1 | inconclusive: 22.4 µM [inhibitor, full curve, poor fit] | 
O=C1NC(=O)C(=Cc2ccccc2OCCOc2ccc([N+](=O)[O-])cc2)C(=O)N1 | active: 89.1 µM | 
C[C@@H]1O[C@@H](Oc2c(-c3ccc(O)c(O)c3)oc3cc(O)cc(O)c3c2=O)[C@H](O)[C@H](O)[C@H]1O | inconclusive: 28.2 µM [inhibitor, partial curve] | 
C=C(C)C(Cc1c(OC)ccc(C(=O)/C=C/c2ccc(O)cc2)c1O)OO (stereo not drawn) | inconclusive: 56.2 µM [inhibitor, partial curve] | 
Cc1ccccc1-c1nc(CN2C(=O)CN=C(c3ccccc3)c3ccccc32)c(C)o1 | inconclusive: 22.4 µM [inhibitor, partial curve, poor fit] | 
COc1ccc2c3c1OC1C(=O)CC[C@@]4(O)[C@@H](C2)N(C)CC[C@]314 (stereo partly drawn) |  | inactive: -4.83%
CC(N)Cc1c[nH]c2cc3c(cc12)OCCO3 (stereo not drawn) | inconclusive: 79.4 µM [inhibitor, partial curve] | 
CCOP(=O)(c1ccccc1)c1nc(-c2ccc(F)cc2)oc1N1CCCCC1 (stereo not drawn) | inconclusive: 79.4 µM [inhibitor, partial curve] | 
c1cncc(CNCCN2CCNCC2)c1 |  | inactive: -2.05%
N#CCSc1nnc(-c2ccc3c(c2)OCO3)o1 | inconclusive: 50.1 µM [inhibitor, partial curve] | 
CCC12CN3CC(CC)(CN(C1)C3c1c(C)[nH]c(=O)[nH]c1=O)C2=O (stereo not drawn) |  | inactive: -7.55%
Cn1c(NN=O)nc2ccccc21 | inconclusive: 79.4 µM [inhibitor, partial curve] | 
N#Cc1c(/N=C/c2ccc(O)cc2O)sc2c1C1CCN2CC1 | inconclusive: 44.7 µM [inhibitor, single point] | 
CCC1CN2CCc3cc(OC)c(OC)cc3C2CC1CC1NCCc2c1[nH]c1ccc(O)cc21 (stereo not drawn) | inconclusive: 15.8 µM [inhibitor, full curve] | 
CCN1C(=NCCOC)N[C@@H](c2cccc(F)c2)C(C(=O)OC)=C1C | inconclusive: 28.2 µM [inhibitor, single point] | 
COC(=O)C(Cc1ccc(N(CCCl)CCCl)cc1)N=Cc1ccccc1O (stereo not drawn) | inconclusive: 25.1 µM [inhibitor, full curve] | 
C=C[C@]1(C)C[C@H]1[C@H](NP(=O)(c1ccccc1)c1ccccc1)c1ccccc1 | inconclusive: 20 µM [inhibitor, full curve, poor fit] | 
COc1ccc(CCNCc2ccncc2)cc1 | active: 1.26 µM | 
CC(C)C1(C)N=C(c2ncccc2C(=O)O)NC1=O (stereo not drawn) | active: 22.4 µM | 
COc1ccc(C(=O)Nc2cccc(S(=O)(=O)NCc3ccco3)c2)cc1 | inconclusive: 89.1 µM [inhibitor, partial curve] | 

Structure (SMILES) | Potency | activity change, negative = inhibition
Cc1ccc(-n2c(C)cc(/C=C3/C(=O)NC(=O)N(Cc4ccco4)C3=O)c2C)cc1 | inconclusive: 31.6 µM [inhibitor, partial curve] | 
O=C1CC(=O)N(c2cccc(Br)c2)C(=O)N1 | inconclusive: 22.4 µM [inhibitor, partial curve] | 
CN(C)c1ccc(CN2CCc3nc(N4CCN(c5ccccn5)CC4)ncc3C2)cc1 | active: 35.5 µM | 
COC(=O)C1=C(c2ccc(F)cc2F)C[C@@H]2CC[C@H]1N2C(=O)N1CCC(O)(c2ccc(Cl)cc2)CC1 | inconclusive: 56.2 µM [inhibitor, partial curve] | 
Cc1oc(-c2ccccc2Cl)nc1CN1C(=O)CN=C(c2ccccc2)c2ccccc21 | inconclusive: 79.4 µM [inhibitor, partial curve] | 
Cc1ccccc1CN1CCN(C(=O)Cc2ccccc2)CC1 | active: 11.2 µM | 
Cc1cc(C=C2C(=O)N(C)C(=S)N(C)C2=O)c(C)n1C1CCCC1 | inconclusive: 50.1 µM [inhibitor, partial curve] | 
COC(=O)Cn1cc(C=C2C(=O)NC(=O)NC2=O)c2ccccc21 |  | inactive: -13%
CN1CCN(Cc2ccc(OC(F)(F)F)cc2)CC1 | inconclusive: 89.1 µM [inhibitor, single point] | 
N#CCCn1cc(C(=O)Nc2ccc([N+](=O)[O-])cc2)c(-c2ccccc2)n1 |  | inactive: -8.5%
CCOc1ccc2nc(N=Nc3c(O)[nH]c(=S)[nH]c3=O)sc2c1 | inconclusive: 25.1 µM [inhibitor, partial curve] | 
Cc1cccn2c(=O)c3c(nc12)N1CCC(Cc2ccccc2)CC1C1(C3)C(=O)N(C)C(=O)N(C)C1=O (stereo not drawn) |  | inactive: -27.8%
COc1ccc(Cn2c(O)c(/C=N/NC(=O)c3ccncc3)c(=O)[nH]c2=O)cc1 | inconclusive: 50.1 µM [inhibitor, single point] | 
O=c1c2ccccc2nc(/C=C/c2ccccc2F)n1-c1ccccc1O | inconclusive: 44.7 µM [inhibitor, partial curve] | 
O=C(N/N=C/c1c(O)n(Cc2ccccc2)c(=O)[nH]c1=O)c1ccncc1 | inconclusive: 50.1 µM [inhibitor, partial curve] | 
COc1cc2c3cc1Oc1c(OC)c(OC)cc4c1[C@H](Cc1ccc(cc1)Oc1cc(ccc1O)C[C@H]3N(C)CC2)N(C)CC4 | inconclusive: 56.2 µM [inhibitor, partial curve] | 
Cc1cc(C)n2nc(SCC(=O)N3CCC4(CC3)OCCO4)nc2n1 |  | inactive: -13.3%
N#CC(C#N)=Cc1ccc(C=C(C#N)C#N)cc1 |  | inactive: -14.4%
COc1ccccc1N1CCN(Cc2cccc(Br)c2)CC1 | active: 12.6 µM | 
C[C@@H]1O[C@@H]1P(=O)(O)O | inconclusive: 100 µM [inhibitor, partial curve, poor fit] | 
Cc1c(Oc2cc(NN3CCCCC3)c([N+](=O)[O-])cc2[N+](=O)[O-])cccc1[N+](=O)[O-] | inconclusive: 12.6 µM [inhibitor, partial curve] | 
C=CCn1c(C2CC2)n[nH]c1=S | inconclusive: 100 µM [inhibitor, single point] | 
